# Data from the supplement of paper PMC8728848.
# The other results are listed elsewhere or left out.
# Experiments:
# Assay in all cases: glycan array binding signal (z-score within array); higher = stronger binding
# Settings in all cases: glycan notation: IUPAC condensed, linker removed
# [1] = biological target: Gal(b1-4)GlcNAc(b1-3)Gal(b1-4)GlcNAc(b1-2)[Gal(b1-4)GlcNAc(b1-3)Gal(b1-4)GlcNAc(b1-6)]Man(a1-6)[Gal(b1-4)GlcNAc(b1-3)Gal(b1-4)GlcNAc(b1-2)Man(a1-3)]Man(b1-4)GlcNAc(b1-4)GlcNAc
# In short: (§1)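 Glycan array data were curated from 3228 arrays in the Consortium for Functional Glycomics database and kept only where the protein sequence was available. Glycan names were converted to IUPAC-condensed notation, and columns mapping to the same glycan were averaged. The binding signal is a within-array Z-score, averaged across arrays of the same protein sequence at different concentrations or buffers and across linkers. Negative Z-scores can be read as non-binding.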
# [2] = biological target: Gal(b1-4)GlcNAc(b1-3)Gal(b1-4)GlcNAc(b1-2)[Gal(b1-4)GlcNAc(b1-3)Gal(b1-4)GlcNAc(b1-6)]Man(a1-6)[Gal(b1-4)GlcNAc(b1-3)Gal(b1-4)GlcNAc(b1-2)Man(a1-3)]Man(b1-4)GlcNAc(b1-4)[Fuc(a1-6)]GlcNAc
# In short: as §1
# [3] = biological target: Gal(b1-4)GlcNAc(b1-3)Gal(b1-4)GlcNAc(b1-3)Gal(b1-4)GlcNAc
# In short: as §1
# [4] = biological target: Gal(b1-4)GlcNAc(b1-3)Gal(b1-4)GlcNAc(b1-3)Gal(b1-4)GlcNAc(b1-2)Man(a1-3)[Gal(b1-4)GlcNAc(b1-3)Gal(b1-4)GlcNAc(b1-3)Gal(b1-4)GlcNAc(b1-2)Man(a1-6)]Man(b1-4)GlcNAc(b1-4)GlcNAc
# In short: as §1
# [5] = biological target: Gal(b1-4)GlcNAc(b1-3)Gal(b1-4)GlcNAc(b1-3)Gal(b1-4)GlcNAc(b1-2)Man(a1-3)[Gal(b1-4)GlcNAc(b1-3)Gal(b1-4)GlcNAc(b1-3)Gal(b1-4)GlcNAc(b1-2)Man(a1-6)]Man(b1-4)GlcNAc(b1-4)[Fuc(a1-6)]GlcNAc
# In short: as §1
# [6] = biological target: Gal(b1-4)GlcNAc(b1-3)Gal(b1-4)GlcNAc(b1-3)Gal(b1-4)GlcNAc(b1-2)[Gal(b1-4)GlcNAc(b1-3)Gal(b1-4)GlcNAc(b1-3)Gal(b1-4)GlcNAc(b1-6)]Man(a1-6)[Gal(b1-4)GlcNAc(b1-3)Gal(b1-4)GlcNAc(b1-3)Gal(b1-4)GlcNAc(b1-2)Man(a1-3)]Man(b1-4)GlcNAc(b1-4)[Fuc(a1-6)]GlcNAc
# In short: as §1
# [7] = biological target: Gal(b1-4)GlcNAc(b1-3)Gal(b1-4)GlcNAc(b1-3)Gal(b1-4)GlcNAc(b1-3)Gal(b1-4)GlcNAc(b1-2)Man(a1-3)[Gal(b1-4)GlcNAc(b1-3)Gal(b1-4)GlcNAc(b1-3)Gal(b1-4)GlcNAc(b1-3)Gal(b1-4)GlcNAc(b1-2)Man(a1-6)]Man(b1-4)GlcNAc(b1-4)GlcNAc
# In short: as §1
# [8] = biological target: Gal(b1-4)GlcNAc(b1-3)Gal(b1-4)GlcNAc(b1-3)Gal(b1-4)GlcNAc(b1-3)Gal(b1-4)GlcNAc(b1-2)Man(a1-3)[Gal(b1-4)GlcNAc(b1-3)Gal(b1-4)GlcNAc(b1-3)Gal(b1-4)GlcNAc(b1-3)Gal(b1-4)GlcNAc(b1-2)Man(a1-6)]Man(b1-4)GlcNAc(b1-4)[Fuc(a1-6)]GlcNAc
# In short: as §1
# [9] = biological target: Gal(b1-4)GlcNAc(b1-3)Gal(b1-4)GlcNAc(b1-3)Gal(b1-4)GlcNAc(b1-3)Gal(b1-4)GlcNAc(b1-2)[Gal(b1-4)GlcNAc(b1-3)Gal(b1-4)GlcNAc(b1-3)Gal(b1-4)GlcNAc(b1-3)Gal(b1-4)GlcNAc(b1-6)]Man(a1-6)[Gal(b1-4)GlcNAc(b1-3)Gal(b1-4)GlcNAc(b1-3)Gal(b1-4)GlcNAc(b1-3)Gal(b1-4)GlcNAc(b1-2)Man(a1-3)]Man(b1-4)GlcNAc(b1-4)[Fuc(a1-6)]GlcNAc
# In short: as §1
# [10] = biological target: Gal(b1-4)GlcNAc(b1-3)Gal(b1-4)GlcNAc(b1-3)Gal(b1-4)GlcNAc(b1-3)Gal(b1-4)GlcNAc(b1-3)Gal(b1-4)GlcNAc(b1-2)Man(a1-3)[Gal(b1-4)GlcNAc(b1-3)Gal(b1-4)GlcNAc(b1-3)Gal(b1-4)GlcNAc(b1-3)Gal(b1-4)GlcNAc(b1-3)Gal(b1-4)GlcNAc(b1-2)Man(a1-6)]Man(b1-4)GlcNAc(b1-4)GlcNAc
# In short: as §1
# [11] = biological target: Gal(b1-4)GlcNAc(b1-3)Gal(b1-4)GlcNAc(b1-3)Gal(b1-4)GlcNAc(b1-3)Gal(b1-4)GlcNAc(b1-3)Gal(b1-4)GlcNAc(b1-2)Man(a1-3)[Gal(b1-4)GlcNAc(b1-3)Gal(b1-4)GlcNAc(b1-3)Gal(b1-4)GlcNAc(b1-3)Gal(b1-4)GlcNAc(b1-3)Gal(b1-4)GlcNAc(b1-2)Man(a1-6)]Man(b1-4)GlcNAc(b1-4)[Fuc(a1-6)]GlcNAc
# In short: as §1
# [12] = biological target: Gal(b1-4)GlcNAc(b1-3)Gal(b1-4)GlcNAc(b1-3)Gal(b1-4)GlcNAc(b1-3)Gal(b1-4)GlcNAc(b1-3)Gal(b1-4)GlcNAc(b1-2)[Gal(b1-4)GlcNAc(b1-3)Gal(b1-4)GlcNAc(b1-3)Gal(b1-4)GlcNAc(b1-3)Gal(b1-4)GlcNAc(b1-3)Gal(b1-4)GlcNAc(b1-6)]Man(a1-6)[Gal(b1-4)GlcNAc(b1-3)Gal(b1-4)GlcNAc(b1-3)Gal(b1-4)GlcNAc(b1-3)Gal(b1-4)GlcNAc(b1-3)Gal(b1-4)GlcNAc(b1-2)Man(a1-3)]Man(b1-4)GlcNAc(b1-4)[Fuc(a1-6)]GlcNAc
# In short: as §1
# [13] = biological target: Gal(b1-4)GlcNAc(b1-3)Gal(b1-4)GlcNAc(b1-3)Gal(b1-4)GlcNAc(b1-3)Gal(b1-4)GlcNAc(b1-3)Gal(b1-4)GlcNAc(b1-3)Gal(b1-4)GlcNAc(b1-2)Man(a1-3)[Gal(b1-4)GlcNAc(b1-3)Gal(b1-4)GlcNAc(b1-3)Gal(b1-4)GlcNAc(b1-3)Gal(b1-4)GlcNAc(b1-3)Gal(b1-4)GlcNAc(b1-3)Gal(b1-4)GlcNAc(b1-2)Man(a1-6)]Man(b1-4)GlcNAc(b1-4)GlcNAc
# In short: as §1
# [14] = biological target: Gal(b1-4)GlcNAc(b1-3)Gal(b1-4)GlcNAc(b1-3)GalNAc
# In short: as §1
# [15] = biological target: Gal(b1-4)GlcNAc(b1-3)Gal(b1-4)GlcNAc(b1-3)[Gal(b1-4)GlcNAc(b1-3)Gal(b1-4)GlcNAc(b1-6)]GalNAc
# In short: as §1
# [16] = biological target: Gal(b1-4)GlcNAc(b1-3)Gal(b1-4)GlcNAc(b1-6)[Gal(b1-3)]GalNAc
# In short: as §1
# [17] = biological target: Gal(b1-4)GlcNAc(b1-3)Gal(b1-4)[Fuc(a1-3)]GlcNAc(b1-3)Gal(b1-4)[Fuc(a1-3)]GlcNAc
# In short: as §1
# [18] = biological target: Gal(b1-4)GlcNAc(b1-3)GalNAc
# In short: as §1
# [19] = biological target: Gal(b1-4)GlcNAc(b1-3)[Fuc(a1-3)GlcNAc(b1-6)]Gal(b1-4)Glc
# In short: as §1
# [20] = biological target: Gal(b1-4)GlcNAc(b1-3)[Gal(b1-4)GlcNAc(b1-6)]Gal(b1-4)GlcNAc
# In short: as §1
# [21] = biological target: Gal(b1-4)GlcNAc(b1-3)[GlcNAc(b1-6)]Gal(b1-4)GlcNAc
# In short: as §1
# [22] = biological target: Gal(b1-4)GlcNAc(b1-6)Gal(b1-4)GlcNAc
# In short: as §1
binder,measurement,setting,value
"CBM13 2a (Mycobacterium tuberculosum), P64849 (protein) DGPVQLKSRLGDVCLDAPSGSWFSPLVINPCNGTDFQRWNLTDDRQVESVAFPGECVNIGNALWARLQPCVNWISQHWTVQPDGLVKSDLDACLTVLGGPDPGTWVSTRWCDPNAPDQQWDSVPLEHHHHHH",glycan array binding signal (z-score),[1],-0.296
same,glycan array binding signal (z-score),[2],0.055
same,glycan array binding signal (z-score),[3],-0.268
same,glycan array binding signal (z-score),[4],3.22
same,glycan array binding signal (z-score),[5],0.008
same,glycan array binding signal (z-score),[6],0.084
same,glycan array binding signal (z-score),[7],0.015
same,glycan array binding signal (z-score),[8],-0.079
same,glycan array binding signal (z-score),[9],0.051
same,glycan array binding signal (z-score),[10],-0.168
same,glycan array binding signal (z-score),[11],-0.111
same,glycan array binding signal (z-score),[12],-0.002
same,glycan array binding signal (z-score),[13],0.008
same,glycan array binding signal (z-score),[14],6.08
same,glycan array binding signal (z-score),[15],4.69
same,glycan array binding signal (z-score),[16],5.73
same,glycan array binding signal (z-score),[17],-0.028
same,glycan array binding signal (z-score),[18],0.021
same,glycan array binding signal (z-score),[19],0.636
same,glycan array binding signal (z-score),[20],-0.327
same,glycan array binding signal (z-score),[21],-0.387
same,glycan array binding signal (z-score),[22],-0.365
